Data published in PubChem BioAssay AID1671193 (National Center for Advancing Translational Sciences (NCATS), 2021).
Screen size: about 150,000 compounds; about 180 (0.12%) were called active. Inconclusive means that the source gave no clear call. Such entries were picked first, then a sample of the others. Calls come from the whole dose curve; as a rule, active = well fitted cell-killing curve with a large enough effect; inconclusive = small, poorly fitted or top-dose-only effect, or effect the other way; inactive = flat fitted curve, though single readings scatter. Where the call is inconclusive, the potency comes from a doubtful curve fit.

test: GF-AFC viability counterscreen for inhibitors of alpha-synuclein gene (SNCA) expression; conditions: HEK-293-SNCA-luc viability, GF-AFC fluorescence, 24 h; activity change, negative = cytotoxicity: at 57.1 µM (top of the series) unless noted; note: nearly all actives have a fitted effect of over 30% in size;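 for activity change, negative = cytotoxicity: 0% = DMSO-treated cells and -100% = medium-only wells without cells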
Summary of the method: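 HEK-293-SNCA-luc cells (1500/well) plated 24 h, then exposed 24 h to a dilution series; GF-AFC added 30 min at 37C, fluorescence 405/540 nm; normalised to medium-only and DMSO wells, Hill fit.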
Potency is the fitted concentration of half-maximal effect; tags give direction and shape of the fitted curve.

| SMILES | Potency | activity change, negative = cytotoxicity |
| --- | --- | --- |
| COc1ccc(NC(=O)CSc2cn(CC(=O)N3CCCCC3)c3ccccc23)c(OC)c1 | inconclusive: 12.6 µM [cytotoxic, partial curve] |  |
| Cc1ccc2c(CN3CCN(Cc4ccccc4Cl)CC3)cc(=O)oc2c1 | inactive |  |
| O=C(NCc1ccc(C(F)(F)F)cc1)c1cc(Br)cn2ccnc12 | inconclusive: 10 µM [rising, full curve, poor fit] |  |
| C[C@@H]1O[C@@H](O[C@H]2[C@H](O)[C@@H](O)[C@H](OC[C@H]3O[C@@H](OC(=O)[C@]45CCC(C)(C)C[C@H]4C4=CCC6[C@@]7(C)C[C@@H](O)[C@H](O)[C@@](C)(CO)C7[C@H](O)C[C@@]6(C)[C@]4(C)CC5)[C@H](O)[C@@H](O)[C@@H]3O)O[C@@H]2CO)[C@H](O)[C@H](O)[C@H]1O (stereo not given in full) |  | inactive: -35.5% [at 12.5 µM] |
| COc1ccc(N2C(=O)CSC23C(=O)N(C)c2ccccc23)cc1Cl (stereo not given) | inactive |  |
| COC(=O)[C@@H]1Cc2ncn(Cc3ccc(OC)cc3)c2CN1S(=O)(=O)c1cccc2cccnc12 | inconclusive: 7.94 µM [cytotoxic, partial curve, poor fit] |  |
| COc1ccc(Cl)cc1-c1ccc2c(c1)C(=O)N1CCN(C(=O)c3ccc(N(C)C)cc3)C[C@@H]1C(=O)N2 | inconclusive: 39.8 µM [cytotoxic, partial curve, poor fit] |  |
| Cc1ncc2n1C(=O)N(C1CCN(Cc3ccncc3)CC1)C2 | inconclusive: 56.2 µM [cytotoxic, single point] |  |
| COc1ccc(C(=O)NCCn2cc(SCc3cccc(F)c3)c3ccccc32)cc1OC | inconclusive: 20 µM [cytotoxic, partial curve, poor fit] |  |
| CC(C)Cn1c(=O)c2ccccc2n2c(CCC(=O)N3CCN(c4cccc(Cl)c4)CC3)nnc12 | inconclusive: 28.2 µM [cytotoxic, partial curve, poor fit] |  |
| O=C(Nc1ncc(-c2cc(C(F)F)nn2-c2c(Cl)cccc2Cl)s1)C1CC1 | inconclusive: 6.07 µM [cytotoxic, partial curve, poor fit] |  |
| COc1ccc(-c2nc(SCC(=O)NC3CCCC3)c(-c3ccc(OC)cc3)[nH]2)cc1 | inconclusive: 39.8 µM [cytotoxic, single point] |  |
| Cc1ccsc1C(=O)N1CCC2(CC1)CC(OCC1CC1)CCO2 (stereo not given) |  | inactive: -0.781% [at 12.5 µM] |
| O=C(NC1CC1)c1cc2c(=O)[nH]c(-c3ccccc3)cn2n1 | inactive |  |
| CC[C@H](CC[C@@H](C)[C@H]1CC[C@H]2[C@@H]3CC=C4C[C@@H](O)CC[C@]4(C)[C@@H]3CC[C@]12C)C(C)C | inconclusive: 42.9 µM [cytotoxic, single point] |  |
| COc1ccc(-c2[nH]nc3ncc(-c4cccnc4)nc23)cc1F | inconclusive: 6.31 µM [cytotoxic, full curve, poor fit] |  |
| CCN(Cc1cc(Nc2nc(C)cn3c(-c4cn[nH]c4)cnc23)sn1)C(C)(C)CO | inconclusive: 3.77 µM [cytotoxic, partial curve] |  |
| Cc1ccc(CS(=O)(=O)c2ncc(Cl)c(C(=O)Nc3nnc(C(C)C)s3)n2)cc1 | active: 25.1 µM |  |
| O=C(NCc1cccc(F)c1)C1CCCN(Cc2cccc(-c3ccc(F)cc3F)c2)C1 (stereo not given) | inconclusive: 39.8 µM [cytotoxic, single point] |  |
| O=c1cc(-c2ccncc2)oc2c(-c3ccccc3O)nccc12 | inactive |  |

| SMILES | Potency | activity change, negative = cytotoxicity |
| --- | --- | --- |
| CCc1ccc(C2c3c(-c4ccccc4O)n[nH]c3C(=O)N2Cc2cccnc2)cc1 (stereo not given) | inconclusive: 22.4 µM [cytotoxic, partial curve, poor fit] |  |
| COc1ccc(Nc2cc3c(cn2)NCCN(Cc2ccccc2)C3)cc1 | inconclusive: 35.5 µM [cytotoxic, single point] |  |
| O=C(NCc1nnc2ccc(-c3ccccc3)nn12)c1ccc(F)c(F)c1 | inconclusive: 39.8 µM [cytotoxic, single point] |  |
| COc1ccc(CCNC(=O)CN(c2ccccc2)S(=O)(=O)N(C)C)cc1OC | inconclusive: 3.55 µM [rising, partial curve, poor fit] |  |
| CC(C)c1ccc(NC(=O)N[C@H]2CO[C@H]3[C@@H]2OC[C@H]3OC(=O)Nc2ccc(Oc3ccccc3)cc2)cc1 | inactive |  |
| CC(C)c1noc(-c2ccc(N(C)CC(O)c3ccccc3)nc2)n1 (stereo not given) | inconclusive: 17.8 µM [cytotoxic, partial curve, poor fit] |  |
| CN1CCN(c2ncnc3ccc(-c4ccc(C(=O)N(C)C)cc4)cc23)CC1 | inactive |  |
| CCn1cc(S(=O)(=O)N2CCC(Oc3ccc(-c4noc(C5CC5)n4)cc3)C2)cn1 (stereo not given) | inconclusive: 3.55 µM [cytotoxic, full curve, poor fit] |  |
| COC(=O)c1sccc1S(=O)(=O)N(CC(=O)Nc1cccc(C)c1C)c1ccc(C)c(C)c1 | inconclusive: 11.2 µM [cytotoxic, partial curve, poor fit] |  |
| CCc1nn(-c2ccc(OC)cc2)c(Oc2ccccc2F)c1CCC(=O)N(CC)CC | inconclusive: 2.24 µM [cytotoxic, partial curve, poor fit] |  |
| O=C(c1cccc(F)c1)N1CCCC(Cc2noc(-c3ccccc3)n2)C1 (stereo not given) | active: 3.55 µM |  |
| O=C1COc2ccc(-c3cc(F)cc(F)c3)nc2CN1Cc1ccccc1F | inactive |  |
| O=C(c1ccc(F)cc1)n1nc(-c2cccnc2)nc1NCc1ccccc1 | inactive |  |
| CC1(C(=O)NCc2ccc3c(c2)OCO3)CCc2cnc(NCc3ccccc3)nc21 (stereo not given) | inconclusive: 31.6 µM [cytotoxic, single point] |  |
| O=C(NCCc1ccncc1)C1CN(C(=O)c2ccsc2)CC12CCOCC2 (stereo not given) | inconclusive: 35.5 µM [cytotoxic, single point] |  |
| Cc1ccc(S(=O)(=O)N[C@H]2CO[C@H]3[C@@H]2OC[C@H]3O)cc1 | inactive |  |
| CCOc1cc(C(C)(C)C)ccc1C1=N[C@@](C)(c2ccc(Cl)cc2)[C@@](C)(c2ccc(Cl)cc2)N1C(=O)N1CCN(CC(=O)N2CCOCC2)CC1 | inconclusive: 24.1 µM [cytotoxic, single point] |  |
| CCCNC(=O)Cc1csc2nc(C)c(-c3cc(C)n(-c4ccccc4CC)n3)c(=O)n12 | inactive |  |
| COc1ccc2[nH]c(C[C@@H]3C[C@@H](C(C)C)[C@H](CNC(=O)Cn4cnnn4)C=C3C)nc2n1 | inactive |  |
| O=C(Cc1ccc(F)cc1)NCCc1csc2nc(-c3ccccc3F)nn12 | inconclusive: 28.2 µM [cytotoxic, single point] |  |

| SMILES | Potency | activity change, negative = cytotoxicity |
| --- | --- | --- |
| CCOc1ccc(Cc2nc(-c3c(C)nc4ccccn34)cs2)cc1 | active: 11.9 µM |  |
| O=C(c1ccc2c(c1)OCO2)N1C[C@@H](CO)[C@H](c2nc(C3CC3)no2)C1 | inactive |  |
| CN(Cc1cccc(CCN)c1)Cc1cccc2ncccc12 | inactive |  |
| O=C(Cc1cccc(F)c1)N1CCC(Cc2nncn2CC2CC2)C1 (stereo not given) | inactive |  |
| CCN(CC)c1cc(CCC(=O)NCCc2cccnc2)ccn1 | inactive |  |
| COc1cc(Nc2ncc(F)c(Nc3ccc4c(n3)N(COP(=O)(O)O)C(=O)C(C)(C)O4)n2)cc(OC)c1OC | inconclusive: 4.23 µM [cytotoxic, full curve, poor fit] |  |
| COc1ccc2[nH]c3c(c2c1)CCNC31CCN(Cc2ccc(F)cc2F)CC1 |  | inactive: 9.17% [at 12.5 µM] |
| CCc1ccc2oc(-c3cc(NC(=O)c4cc(OC)c(OC)c(OC)c4)ccc3O)nc2c1 | inconclusive: 25.1 µM [cytotoxic, partial curve, poor fit] |  |
| COc1ccccc1NC(=O)CN1C(=O)C(c2ccc(F)cc2)=NC12CCCCC2 | inconclusive: 14.1 µM [cytotoxic, single point] |  |
| O=C(C1CCc2nnc(C3CCN([S+](=O)([O-])c4ccccc4Cl)CC3)n21)N1CCCCC1 (stereo not given) | inactive |  |
| COc1ccc(C(=O)NC2CCN(c3nccc(Nc4ccccc4Cl)n3)CC2)cc1 | inconclusive: 28.2 µM [cytotoxic, partial curve, poor fit] |  |
| CCc1ccc(NC(=O)Cn2c(=O)n(-c3ccccc3C)c(=O)c3c2c2cc(OC)ccc2n3C)cc1 | inconclusive: 7.08 µM [cytotoxic, single point] |  |
| CCc1cccc(NC(=O)Cn2c(-c3ccc(F)cc3)nc(C)c(CCO)c2=O)c1 | inconclusive: 5.62 µM [cytotoxic, single point] |  |
| CN1CCN(c2nc3c(S(=O)(=O)c4ccc(Cl)cc4)nnn3c3ccsc23)CC1 | inconclusive: 7.08 µM [cytotoxic, single point] |  |
| CCn1c(-c2nonc2N)nc2c(C#CCO)ncc(OCCCN)c21 | inconclusive: 1.5 µM [cytotoxic, full curve, poor fit] |  |
| COc1ccc(-c2nc3cnc(N(C)C)nc3n(Cc3cccs3)c2=O)cc1 | inconclusive: 3.16 µM [rising, partial curve, poor fit] |  |
| CCN(CC)c1ccc(-n2nc3cc(C)c(NC(=O)c4ccccc4C)cc3n2)c(C)c1 | inconclusive: 39.8 µM [rising, partial curve] |  |
| CCOc1ccc(NC(=O)Cn2c(=O)n(CCCCC(=O)NCc3ccc4c(c3)OCO4)c(=O)c3ccccc32)cc1 | inconclusive: 35.5 µM [cytotoxic, single point] |  |
| COc1ccccc1-c1nn2c(=O)cc(CN3CCN(C(=O)/C=C/c4ccccc4)CC3)nc2s1 | inconclusive: 4.47 µM [cytotoxic, full curve] |  |
| CCOC(=O)C[C@@H]1C[C@@H](C(C)C)[C@H](CNC(=O)c2ccc(C#N)cc2)C=C1C | inconclusive: 25.1 µM [cytotoxic, partial curve, poor fit] |  |
